Converted amounts (≈) assume the structure as drawn. Read-outs that look alike come from different tables or passages of the source.
Experiments:
[1] = system: Sheep red blood cells; assay: Hemolysis assay (HC50); type: cell-based; conditions: for HC50 (µM/ml): sheep erythrocytes, recalculated from μg/mL values, estimated as in https://pubmed.ncbi.nlm.nih.gov/29307075/; for HC50: sheep red blood cells 4% (v/v) in PBS, peptides 1-[…], 60 min at 37 °C, hemoglobin release at 590 nm, 1% Triton-X 100 = 100% hemolysis, triplicate, HC50 by ic50.tk
Method: The hemolysis assay was conducted according to the procedure described previously. Sheep red blood cells (Defibrillated Sheep Blood, Graso, Poland) were used. […] Then the solution of RBCs was added to each well (100 μL with a 4% concentration of erythrocytes (v/v). The control wells for 0 and 100% hemolysis were also prepared: RBCs suspended in PBS and 1% of Triton-X 100, respectively. After that the plates were incubated for 60 min at 37 °C and then centrifuged at 800 × g for 10 min at 4 °C (Sorvall ST 16R Centrifuge, Thermo Scientific). The supernatant was carefully […] to new microtiter plates and the release of hemoglobin was measured at 590 nm (Multiskan™ GO Microplate Spectrophotometer, Thermo Scientific). Hemolysis for each concentration was calculated as the percentage of control with 100% hemolysis. All experiments were conducted in triplicate. The final values of HC50 were computed using ic50.tk tool.

[2] = system: E. coli ATCC 25922; type: cell-based, Escherichia coli
Method: (§1) Fresh cultures were used in antimicrobial assay. […] Moreover MBC was evaluated. […] All experiments were conducted in triplicate.

[3] = system: E. coli ATCC 43827; type: cell-based, Escherichia coli
[4] = system: S. aureus ATCC 33591; type: cell-based, Staphylococcus aureus
Method: as §1

[5] = system: P. aeruginosa ATCC 9027; type: cell-based, Pseudomonas aeruginosa; conditions: triplicate; for P. aeruginosa ATCC 9027 MIC: second experimental round, broth microdilution (CLSI), Mueller-Hinton Broth, 0.5 × 10^5 CFU/mL, 1-[…], 18 h at 37 °C; for P. aeruginosa ATCC 9027 MBC: second round, MIC well and two higher concentrations seeded on agar plates, no visible colonies
Method: as §1

[6] = system: A. baumannii ATCC BAA 1605; type: cell-based, Acinetobacter baumannii; conditions: triplicate; for A. baumannii ATCC BAA 1605 MIC: second experimental round, broth microdilution (CLSI), Mueller-Hinton Broth, 0.5 × 10^5 CFU/mL, 1-[…], 18 h at 37 °C; for A. baumannii ATCC BAA 1605 MBC: second round, MIC well and two higher concentrations seeded on agar plates, no visible colonies
Method: as §1

[7] = second round, MIC well and two higher concentrations seeded on agar plates, no visible colonies, triplicate
[8] = second experimental round, broth microdilution (CLSI), Mueller-Hinton Broth, 0.5 × 10^5 CFU/mL, 1-[…], 18 h at 37 °C, triplicate
[9] = Supplementary Data 5F, analogue generation without additional preselection
[10] = first experimental round, broth microdilution (CLSI), Mueller-Hinton Broth, 0.5 × 10^5 CFU/mL, 1-[…], 18 h at 37 °C, triplicate

| SMILES | HC50 (µM/ml) [1] | HC50 [1] | E. coli ATCC 25922 MBC ([2]; Supplementary Data 5D/5E) | E. coli ATCC 25922 MIC ([2]; Supplementary Data 5D/5E) | E. coli ATCC 25922 MBC [2, 7] | E. coli ATCC 43827 MBC ([3]; Supplementary Data 5D/5E) | E. coli ATCC 43827 MIC ([3]; Supplementary Data 5D/5E) | E. coli ATCC 43827 MIC [3, 8] | E. coli ATCC 43827 MBC [3, 7] | S. aureus ATCC 33591 MBC ([4]; Supplementary Data 5D/5E) | S. aureus ATCC 33591 MIC ([4]; Supplementary Data 5D/5E) | S. aureus ATCC 33591 MBC [4, 7] | P. aeruginosa ATCC 9027 MIC [5] | P. aeruginosa ATCC 9027 MBC [5] | A. baumannii ATCC BAA 1605 MIC [6] | A. baumannii ATCC BAA 1605 MBC [6] | E. coli ATCC 25922 MBC [2] | E. coli ATCC 25922 MIC [2] | E. coli ATCC 25922 MIC [2, 8] | S. aureus ATCC 33591 MIC [4, 8] | also measured |
| --- | --- | --- | --- | --- | --- | --- | --- | --- | --- | --- | --- | --- | --- | --- | --- | --- | --- | --- | --- | --- | --- |
| CC[C@H](C)[C@H](NC(=O)[C@H](Cc1c[nH]c2ccccc12)NC(=O)[C@H](CCCNC(=N)N)NC(=O)[C@H](CC(C)C)NC(=O)CN)C(=O)N[C@@H](Cc1c[nH]c2ccccc12)C(=O)N[C@@H](CCCCN)C(=O)N[C@H](C(=O)N[C@@H](Cc1c[nH]c2ccccc12)C(=O)N[C@@H](CCCNC(=N)N)C(=O)N[C@@H](CCCNC(=N)N)C(=O)N[C@@H](CC(C)C)C(N)=O)[C@@H](C)CC [Suselkan] | 42 µM/ml | 95 µg/mL | 16 µg/mL | 8 µg/mL | 16 µg/mL | 8 µg/mL | 4 µg/mL | 4 µg/mL | 8 µg/mL | 4 µg/mL | 4 µg/mL | 4 µg/mL | 16 µg/mL | 32 µg/mL | 4 µg/mL | 4 µg/mL |  |  |  |  |  |
| CC[C@H](C)[C@H](N)C(=O)NCC(=O)N[C@@H](CCCCN)C(=O)N[C@@H](CC(C)C)C(=O)N[C@@H](Cc1ccccc1)C(=O)N[C@@H](CCCCN)C(=O)N[C@@H](CCCNC(=N)N)C(=O)N[C@H](C(=O)N[C@@H](Cc1c[nH]cn1)C(=O)N[C@@H](CC(C)C)C(=O)N[C@@H](CCCNC(=N)N)C(=O)N[C@H](C(=O)N[C@@H](CCCCN)C(=O)N[C@@H](CCCNC(=N)N)C(=O)N[C@@H](Cc1ccccc1)C(=O)N[C@@H](CC(C)C)C(=O)N[C@@H](CCCNC(=N)N)C(=O)N[C@@H](CCC(=O)O)C(=O)N[C@@H](CC(C)C)C(=O)N[C@H](C(=O)N[C@@H](CCCNC(=N)N)C(=O)N[C@@H](CCC(N)=O)C(=O)N[C@@H](CC(C)C)C(=O)N[C@@H](CCCNC(=N)N)C(N)=O)C(C)C)[C@@H](C)CC)[C@@H](C)CC [OP-145-TI3] | 118 µM/ml | 512 µg/mL |  |  | 256 µg/mL |  |  | 256 µg/mL | 512 µg/mL |  |  | >512 µg/mL | >512 µg/mL | >512 µg/mL | 64 µg/mL | 64 µg/mL | 256 µg/mL | 256 µg/mL | 256 µg/mL | >512 µg/mL | E. coli ATCC 43827 MBC [3]: 512 µg/mL; E. coli ATCC 43827 MIC [3]: 256 µg/mL; S. aureus ATCC 33591 MBC [4]: >512 µg/mL; S. aureus ATCC 33591 MIC [4]: >512 µg/mL |
| CC[C@H](C)[C@H](NC(=O)CN)C(=O)NCC(=O)N[C@@H](CCCCN)C(=O)N[C@@H](Cc1ccccc1)C(=O)N[C@@H](CC(C)C)C(=O)N[C@@H](CCCCN)C(=O)N[C@@H](Cc1ccccc1)C(=O)N[C@@H](C)C(=O)N[C@@H](CC(C)C)C(=O)N[C@@H](CCCCN)C(=O)N[C@@H](CCCCN)C(=O)NCC(=O)N[C@@H](CC(C)C)C(=O)NCC(=O)N[C@@H](CC(C)C)C(=O)N[C@H](C(=O)N[C@@H](CC(C)C)C(=O)N[C@@H](CCCCN)C(=O)N[C@@H](Cc1ccccc1)C(=O)N[C@@H](CCCCN)C(=O)N[C@@H](CC(C)C)C(N)=O)C(C)C [Hydraganan-2] |  | >512 µg/mL | 128 µg/mL | 128 µg/mL | 128 µg/mL | 128 µg/mL | 128 µg/mL | 128 µg/mL | 128 µg/mL | 32 µg/mL | 32 µg/mL | 32 µg/mL | 128 µg/mL | 256 µg/mL | 32 µg/mL | 32 µg/mL |  |  | 128 µg/mL | 32 µg/mL | E. coli ATCC 25922 MIC [2, 9]: 16 µg/mL; MIC E. coli ATCC 25922 [2, 10]: 16 µg/mL (≈ 6.62 µM); E. coli ATCC 43827 MIC [3, 9]: 16 µg/mL; MIC E. coli ATCC 43927 [3, 10]: 16 µg/mL (≈ 6.62 µM) |
| CC[C@H](C)[C@H](NC(=O)[C@H](CC(C)C)NC(=O)[C@H](CCCNC(=N)N)NC(=O)CN)C(=O)N[C@@H](CCCCN)C(=O)N[C@@H](Cc1ccccc1)C(=O)N[C@H](C(=O)N[C@@H](CCCCN)C(=O)N[C@@H](CCCCN)C(=O)N[C@@H](C)C(=O)N[C@@H](Cc1c[nH]c2ccccc12)C(=O)N[C@@H](CCCNC(=N)N)C(=O)N[C@@H](CCCCN)C(=O)N[C@@H](Cc1ccccc1)C(=O)N[C@H](C(=O)N[C@@H](CCC(=O)O)C(=O)N[C@@H](CCCCN)C(=O)N[C@@H](Cc1ccccc1)C(=O)N[C@@H](C)C(=O)N[C@@H](CCCCN)C(N)=O)[C@@H](C)CC)[C@@H](C)CC [Olabogan] | 18 µM/ml | 65 µg/mL |  |  | 64 µg/mL |  |  | 32 µg/mL | 32 µg/mL |  |  | 32 µg/mL | 64 µg/mL | 128 µg/mL | 32 µg/mL | 32 µg/mL |  |  | 64 µg/mL | 32 µg/mL |  |
| CC[C@H](C)[C@H](N)C(=O)NCC(=O)N[C@@H](CCCCN)C(=O)N[C@@H](CC(C)C)C(=O)N[C@@H](Cc1ccccc1)C(=O)N[C@@H](CCCCN)C(=O)N[C@@H](CCCNC(=N)N)C(=O)N[C@H](C(=O)N[C@H](C(=O)N[C@@H](CCC(=O)O)C(=O)N[C@@H](CCCNC(=N)N)C(=O)N[C@H](C(=O)N[C@@H](CCCCN)C(=O)N[C@@H](CCCNC(=N)N)C(=O)N[C@@H](Cc1ccccc1)C(=O)N[C@@H](CC(C)C)C(=O)N[C@@H](CCCNC(=N)N)C(=O)N[C@H](C(=O)N[C@@H](CC(C)C)C(=O)N[C@@H](CC(C)C)C(=O)N[C@@H](CCCNC(=N)N)C(=O)N[C@H](C(=O)N[C@@H](CC(C)C)C(=O)N[C@@H](CCCNC(=N)N)C(N)=O)[C@@H](C)CC)C(C)C)[C@@H](C)CC)C(C)C)[C@@H](C)CC [OP-145-TII4] | 40 µM/ml | 166 µg/mL |  |  | 256 µg/mL |  |  | 256 µg/mL | 256 µg/mL |  |  | 256 µg/mL | 256 µg/mL | 256 µg/mL | 256 µg/mL | 256 µg/mL | 256 µg/mL | 256 µg/mL | 256 µg/mL | 128 µg/mL | E. coli ATCC 43827 MBC [3]: 256 µg/mL; E. coli ATCC 43827 MIC [3]: 256 µg/mL; S. aureus ATCC 33591 MBC [4]: 256 µg/mL |
